Experimental data published in publication PMC4585734.
These are yes or no findings as the source states them, for the method shown. In cells and extracts the contact can be indirect. Some results given as binding are weak or reduced against the parent protein; the word gives no strength. For part of these data: Tags and fused reporters may be left off the sequences shown. One block for each binder: values may come before it.

Key:
[1] = target: T1, FLAG-tagged RBM45 (full-length FLAG-RBM45) (human) (UniProt Q8IUH3); assay: co-IP; HA-RBM45 constructs transfected into HEK293 stably expressing full-length FLAG-RBM45; FLAG-IP; immunoblot with HA antibody
T1 sequence: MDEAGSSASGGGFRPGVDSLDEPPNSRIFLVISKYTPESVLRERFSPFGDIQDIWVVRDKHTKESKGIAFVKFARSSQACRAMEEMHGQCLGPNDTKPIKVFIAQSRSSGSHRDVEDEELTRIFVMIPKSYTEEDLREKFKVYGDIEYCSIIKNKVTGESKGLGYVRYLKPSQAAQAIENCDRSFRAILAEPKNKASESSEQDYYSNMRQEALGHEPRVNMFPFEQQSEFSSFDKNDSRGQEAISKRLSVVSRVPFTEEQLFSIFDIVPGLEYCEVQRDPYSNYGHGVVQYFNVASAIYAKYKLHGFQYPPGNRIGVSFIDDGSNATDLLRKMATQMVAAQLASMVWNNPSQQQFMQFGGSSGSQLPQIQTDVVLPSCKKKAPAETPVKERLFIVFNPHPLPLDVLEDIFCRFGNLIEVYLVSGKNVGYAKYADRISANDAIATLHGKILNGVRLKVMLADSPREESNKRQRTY

[2] = target: T1, FLAG-tagged RBM45 (full-length FLAG-RBM45) (human); assay: co-IP; FLAG-RBM45 expressed in HEK293; whole cell lysate; IP with FLAG antibody or RBM45 C-terminal antibody; immunoblot with antibody against an internal RBM45 epitope (216-265)
[3] = target: endogenous RBM45 (HEK293) (human (endogenous in HEK293)) (UniProt Q8IUH3); assay: cross-linking; DSS treatment of HEK293 and SK-N-SH cells, endogenous RBM45 (Supplementary Fig. S2d)
[4] = target: endogenous RBM45 (SK-N-SH) (human (endogenous in SK-N-SH)) (UniProt Q8IUH3); assay: as above
[5] = target: T1, FLAG-tagged RBM45 (full-length FLAG-RBM45) (human); assay: co-IP; FLAG-RBM45 and untagged rRBM45 co-expressed in HEK293; nuclear or cytoplasmic fraction; FLAG IP; KCl of the cytoplasmic fraction adjusted to 430 mM
[6] = target: HA-RBM45 deletion construct D5 (Δ258–318) (human) (UniProt Q8IUH3); assay: cross-linking; in vivo DSS cross-linking (1 mM DSS for 10 minutes, room temperature, PBS) of HEK293 expressing HA-RBM45 constructs; SDS-PAGE and immunoblot
[7] = target: HA-RBM45 deletion construct D3 (Δ258–279) (human) (UniProt Q8IUH3); assay: as above
[8] = target: HA-RBM45 deletion construct D4 (Δ286–318) (human) (UniProt Q8IUH3); assay: as above

B1: HA-RBM45 deletion construct D2 (Δ230–234) (protein, UniProt Q8IUH3-3)
chain: MDEAGSSASGGGFRPGVDSLDEPPNSRIFLVISKYTPESVLRERFSPFGDIQDIWVVRDKHTKESKGIAFVKFARSSQACRAMEEMHGQCLGPNDTKPIKVFIAQSRSSGSHRDVEDEELTRIFVMIPKSYTEEDLREKFKVYGDIEYCSIIKNKVTGESKGLGYVRYLKPSQAAQAIENCDRSFRAILAEPKNKASESSEQDYYSNMRQEALGHEPRVNMFPFEQQSEKNDSRGQEAISKRLSVVSRVPFTEEQLFSIFDIVPGLEYCEVQRDPYSNYGHGVVQYFNVASAIYAKYKLHGFQYPPGNRIGVSFIDDGSNATDLLRKMATQMVAAQLASMVWNNPSQQQFMQFGGSSGSQLPQIQTDVVLPSCKKKAPAETPVKERLFIVFNPHPLPLDVLEDIFCRFGNLIEVYLVSGKNVGYAKYADRISANDAIATLHGKILNGVRLKVMLADSPREESNKRQRTY
binding [1]: binds

B6: HA-RBM45 deletion construct D1 (Δ212–216) (protein, UniProt Q8IUH3-3)
chain: MDEAGSSASGGGFRPGVDSLDEPPNSRIFLVISKYTPESVLRERFSPFGDIQDIWVVRDKHTKESKGIAFVKFARSSQACRAMEEMHGQCLGPNDTKPIKVFIAQSRSSGSHRDVEDEELTRIFVMIPKSYTEEDLREKFKVYGDIEYCSIIKNKVTGESKGLGYVRYLKPSQAAQAIENCDRSFRAILAEPKNKASESSEQDYYSNMRQEPRVNMFPFEQQSEFSSFDKNDSRGQEAISKRLSVVSRVPFTEEQLFSIFDIVPGLEYCEVQRDPYSNYGHGVVQYFNVASAIYAKYKLHGFQYPPGNRIGVSFIDDGSNATDLLRKMATQMVAAQLASMVWNNPSQQQFMQFGGSSGSQLPQIQTDVVLPSCKKKAPAETPVKERLFIVFNPHPLPLDVLEDIFCRFGNLIEVYLVSGKNVGYAKYADRISANDAIATLHGKILNGVRLKVMLADSPREESNKRQRTY
binding [1]: binds

B8: HA-RBM45 deletion construct D3 (Δ258–279) (protein, UniProt Q8IUH3-3)
chain: MDEAGSSASGGGFRPGVDSLDEPPNSRIFLVISKYTPESVLRERFSPFGDIQDIWVVRDKHTKESKGIAFVKFARSSQACRAMEEMHGQCLGPNDTKPIKVFIAQSRSSGSHRDVEDEELTRIFVMIPKSYTEEDLREKFKVYGDIEYCSIIKNKVTGESKGLGYVRYLKPSQAAQAIENCDRSFRAILAEPKNKASESSEQDYYSNMRQEALGHEPRVNMFPFEQQSEFSSFDKNDSRGQEAISKRLSVVSRVPFTPYSNYGHGVVQYFNVASAIYAKYKLHGFQYPPGNRIGVSFIDDGSNATDLLRKMATQMVAAQLASMVWNNPSQQQFMQFGGSSGSQLPQIQTDVVLPSCKKKAPAETPVKERLFIVFNPHPLPLDVLEDIFCRFGNLIEVYLVSGKNVGYAKYADRISANDAIATLHGKILNGVRLKVMLADSPREESNKRQRTY
binding [7]: no binding

B9: HA-RBM45 deletion construct D4 (Δ286–318) (protein, UniProt Q8IUH3-3)
chain: MDEAGSSASGGGFRPGVDSLDEPPNSRIFLVISKYTPESVLRERFSPFGDIQDIWVVRDKHTKESKGIAFVKFARSSQACRAMEEMHGQCLGPNDTKPIKVFIAQSRSSGSHRDVEDEELTRIFVMIPKSYTEEDLREKFKVYGDIEYCSIIKNKVTGESKGLGYVRYLKPSQAAQAIENCDRSFRAILAEPKNKASESSEQDYYSNMRQEALGHEPRVNMFPFEQQSEFSSFDKNDSRGQEAISKRLSVVSRVPFTEEQLFSIFDIVPGLEYCEVQRDPYSNYGFIDDGSNATDLLRKMATQMVAAQLASMVWNNPSQQQFMQFGGSSGSQLPQIQTDVVLPSCKKKAPAETPVKERLFIVFNPHPLPLDVLEDIFCRFGNLIEVYLVSGKNVGYAKYADRISANDAIATLHGKILNGVRLKVMLADSPREESNKRQRTY
binding [1]: no binding | binding [8]: no binding

Second part, the binder after the results:

binding [2]: binds | binding [3]: binds
B2: endogenous RBM45 (HEK293) (protein, UniProt Q8IUH3-3 1-474)
chain: MDEAGSSASGGGFRPGVDSLDEPPNSRIFLVISKYTPESVLRERFSPFGDIQDIWVVRDKHTKESKGIAFVKFARSSQACRAMEEMHGQCLGPNDTKPIKVFIAQSRSSGSHRDVEDEELTRIFVMIPKSYTEEDLREKFKVYGDIEYCSIIKNKVTGESKGLGYVRYLKPSQAAQAIENCDRSFRAILAEPKNKASESSEQDYYSNMRQEALGHEPRVNMFPFEQQSEFSSFDKNDSRGQEAISKRLSVVSRVPFTEEQLFSIFDIVPGLEYCEVQRDPYSNYGHGVVQYFNVASAIYAKYKLHGFQYPPGNRIGVSFIDDGSNATDLLRKMATQMVAAQLASMVWNNPSQQQFMQFGGSSGSQLPQIQTDVVLPSCKKKAPAETPVKERLFIVFNPHPLPLDVLEDIFCRFGNLIEVYLVSGKNVGYAKYADRISANDAIATLHGKILNGVRLKVMLADSPREESNKRQRTY

binding [4]: binds
B3: endogenous RBM45 (SK-N-SH) (protein, UniProt Q8IUH3-3 1-474)
chain: MDEAGSSASGGGFRPGVDSLDEPPNSRIFLVISKYTPESVLRERFSPFGDIQDIWVVRDKHTKESKGIAFVKFARSSQACRAMEEMHGQCLGPNDTKPIKVFIAQSRSSGSHRDVEDEELTRIFVMIPKSYTEEDLREKFKVYGDIEYCSIIKNKVTGESKGLGYVRYLKPSQAAQAIENCDRSFRAILAEPKNKASESSEQDYYSNMRQEALGHEPRVNMFPFEQQSEFSSFDKNDSRGQEAISKRLSVVSRVPFTEEQLFSIFDIVPGLEYCEVQRDPYSNYGHGVVQYFNVASAIYAKYKLHGFQYPPGNRIGVSFIDDGSNATDLLRKMATQMVAAQLASMVWNNPSQQQFMQFGGSSGSQLPQIQTDVVLPSCKKKAPAETPVKERLFIVFNPHPLPLDVLEDIFCRFGNLIEVYLVSGKNVGYAKYADRISANDAIATLHGKILNGVRLKVMLADSPREESNKRQRTY

binding [1]: binds
B4: HA-tagged full-length RBM45 (protein, UniProt Q8IUH3-3 1-474)
chain: MDEAGSSASGGGFRPGVDSLDEPPNSRIFLVISKYTPESVLRERFSPFGDIQDIWVVRDKHTKESKGIAFVKFARSSQACRAMEEMHGQCLGPNDTKPIKVFIAQSRSSGSHRDVEDEELTRIFVMIPKSYTEEDLREKFKVYGDIEYCSIIKNKVTGESKGLGYVRYLKPSQAAQAIENCDRSFRAILAEPKNKASESSEQDYYSNMRQEALGHEPRVNMFPFEQQSEFSSFDKNDSRGQEAISKRLSVVSRVPFTEEQLFSIFDIVPGLEYCEVQRDPYSNYGHGVVQYFNVASAIYAKYKLHGFQYPPGNRIGVSFIDDGSNATDLLRKMATQMVAAQLASMVWNNPSQQQFMQFGGSSGSQLPQIQTDVVLPSCKKKAPAETPVKERLFIVFNPHPLPLDVLEDIFCRFGNLIEVYLVSGKNVGYAKYADRISANDAIATLHGKILNGVRLKVMLADSPREESNKRQRTY

binding [5]: binds
B5: recombinant untagged-RBM45 (protein, UniProt Q8IUH3-3 1-474)
chain: MDEAGSSASGGGFRPGVDSLDEPPNSRIFLVISKYTPESVLRERFSPFGDIQDIWVVRDKHTKESKGIAFVKFARSSQACRAMEEMHGQCLGPNDTKPIKVFIAQSRSSGSHRDVEDEELTRIFVMIPKSYTEEDLREKFKVYGDIEYCSIIKNKVTGESKGLGYVRYLKPSQAAQAIENCDRSFRAILAEPKNKASESSEQDYYSNMRQEALGHEPRVNMFPFEQQSEFSSFDKNDSRGQEAISKRLSVVSRVPFTEEQLFSIFDIVPGLEYCEVQRDPYSNYGHGVVQYFNVASAIYAKYKLHGFQYPPGNRIGVSFIDDGSNATDLLRKMATQMVAAQLASMVWNNPSQQQFMQFGGSSGSQLPQIQTDVVLPSCKKKAPAETPVKERLFIVFNPHPLPLDVLEDIFCRFGNLIEVYLVSGKNVGYAKYADRISANDAIATLHGKILNGVRLKVMLADSPREESNKRQRTY

binding [1]: no binding | binding [6]: no binding
B7: HA-RBM45 deletion construct D5 (Δ258–318) (protein, UniProt Q8IUH3-3)
chain: MDEAGSSASGGGFRPGVDSLDEPPNSRIFLVISKYTPESVLRERFSPFGDIQDIWVVRDKHTKESKGIAFVKFARSSQACRAMEEMHGQCLGPNDTKPIKVFIAQSRSSGSHRDVEDEELTRIFVMIPKSYTEEDLREKFKVYGDIEYCSIIKNKVTGESKGLGYVRYLKPSQAAQAIENCDRSFRAILAEPKNKASESSEQDYYSNMRQEALGHEPRVNMFPFEQQSEFSSFDKNDSRGQEAISKRLSVVSRVPFTFIDDGSNATDLLRKMATQMVAAQLASMVWNNPSQQQFMQFGGSSGSQLPQIQTDVVLPSCKKKAPAETPVKERLFIVFNPHPLPLDVLEDIFCRFGNLIEVYLVSGKNVGYAKYADRISANDAIATLHGKILNGVRLKVMLADSPREESNKRQRTY
